Source: PubChem BioAssay AID1347165 (National Center for Advancing Translational Sciences (NCATS), 2019)
Out of some 220,000 compounds screened, about 5,700 (2.6%) were called active. The inconclusive results got no clear call from the source; some entries with a clear call stand among them for comparison. Calls come from the whole dose curve; as a rule, active = well fitted inhibition curve with a large enough effect; inconclusive = small, poorly fitted or top-dose-only effect; inactive = no such curve, though single readings can be large or run the other way. Where the call is inconclusive, the potency comes from a doubtful curve fit. A structure can be active in one record and inactive in another.

Target: Lysine-specific demethylase 5B (Homo sapiens) (UniProt Q9UGL1)
Sequence of UniProt Q9UGL1 (Q9UGL1 whole entry, looked up): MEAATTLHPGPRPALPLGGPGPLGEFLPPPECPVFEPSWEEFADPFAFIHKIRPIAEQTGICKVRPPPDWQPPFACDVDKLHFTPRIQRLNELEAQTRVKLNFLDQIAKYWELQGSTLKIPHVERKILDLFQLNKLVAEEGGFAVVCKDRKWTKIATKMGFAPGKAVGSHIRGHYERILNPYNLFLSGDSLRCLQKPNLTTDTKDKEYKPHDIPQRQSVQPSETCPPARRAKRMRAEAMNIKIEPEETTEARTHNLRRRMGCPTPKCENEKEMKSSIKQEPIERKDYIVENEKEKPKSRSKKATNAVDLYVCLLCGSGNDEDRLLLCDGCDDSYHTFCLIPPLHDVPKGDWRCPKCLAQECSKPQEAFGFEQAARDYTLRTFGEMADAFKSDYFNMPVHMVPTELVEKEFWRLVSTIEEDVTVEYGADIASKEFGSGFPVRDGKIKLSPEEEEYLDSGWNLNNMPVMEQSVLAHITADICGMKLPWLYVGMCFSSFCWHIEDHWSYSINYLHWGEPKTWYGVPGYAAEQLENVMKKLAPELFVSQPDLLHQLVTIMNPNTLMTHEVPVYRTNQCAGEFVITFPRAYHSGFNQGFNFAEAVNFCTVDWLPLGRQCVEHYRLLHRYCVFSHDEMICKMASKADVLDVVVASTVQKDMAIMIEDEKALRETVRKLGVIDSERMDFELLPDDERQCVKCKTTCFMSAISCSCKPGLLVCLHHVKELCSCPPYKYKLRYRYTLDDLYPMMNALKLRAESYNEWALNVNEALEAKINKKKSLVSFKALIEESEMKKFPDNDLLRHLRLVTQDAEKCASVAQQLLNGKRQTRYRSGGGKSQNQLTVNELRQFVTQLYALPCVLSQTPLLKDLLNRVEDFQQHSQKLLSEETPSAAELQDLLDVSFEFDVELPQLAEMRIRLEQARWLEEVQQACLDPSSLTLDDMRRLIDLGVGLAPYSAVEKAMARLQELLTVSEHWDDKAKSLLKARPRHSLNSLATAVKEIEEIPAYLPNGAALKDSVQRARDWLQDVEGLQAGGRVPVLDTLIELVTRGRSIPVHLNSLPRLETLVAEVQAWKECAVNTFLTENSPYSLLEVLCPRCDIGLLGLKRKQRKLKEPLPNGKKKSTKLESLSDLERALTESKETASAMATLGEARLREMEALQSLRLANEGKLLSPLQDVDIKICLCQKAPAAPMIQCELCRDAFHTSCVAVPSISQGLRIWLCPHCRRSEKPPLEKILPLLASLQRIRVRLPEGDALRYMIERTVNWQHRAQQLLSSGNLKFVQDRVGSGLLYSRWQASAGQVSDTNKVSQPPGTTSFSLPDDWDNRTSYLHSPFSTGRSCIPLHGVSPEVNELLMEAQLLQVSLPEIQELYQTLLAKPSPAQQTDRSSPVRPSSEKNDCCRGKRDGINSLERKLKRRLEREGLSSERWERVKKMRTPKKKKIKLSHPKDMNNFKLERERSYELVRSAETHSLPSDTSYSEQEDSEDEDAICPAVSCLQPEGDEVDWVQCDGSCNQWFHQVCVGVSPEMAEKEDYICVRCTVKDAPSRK
Assay: Primary screen for KDM5B Histone Demethylases FDH-coupled qHTS; note: nearly all actives have a fitted effect of over 70% in size; for activity change, negative = inhibition: 0% is about no effect
Details: FDH-coupled NADH fluorescence (FDH is formaldehyde dehydrogenase); activity change, negative = inhibition: at 57.7 µM (top of the series) unless noted
In short: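 qHTS format, multiple compound concentrations. Buffer 50 mM HEPES pH 7.5/0.01% Tween-20; 200 nM KDM5BΔAP final; 10 min compound preincubation; substrate-mix levels 12.5 µM peptide, 25 µM α-KG, 0.25 mM NAD⁺; 30 min RT; ΔRFU.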
Potency is the fitted concentration of half-maximal effect; tags give direction and shape of the fitted curve.

| SMILES | activity change, negative = inhibition | Potency |
| --- | --- | --- |
| Cc1cc(C)c(C=Nc2cccc([N+](=O)[O-])c2C)c(C)c1 | inactive: -6.96% |  |
| OC(COc1cccc(CN2CCC(c3ncon3)CC2)c1)CN1CCOCC1 (stereo unspecified) | inactive: 37.1% |  |
| CCNc1c(NC(=O)Nc2ccc(Br)cc2)c(=O)oc2ccccc12 | inactive: -14.8% |  |
| COc1ccc(F)cc1C(=O)/C=C/c1cccc(C#N)c1 |  | inconclusive: 15.8 µM [inhibitor, partial curve, poor fit] |
| c1ccc(CN2CCN(c3nccc(-c4ccncc4)n3)CC2)nc1 | inactive: -10.1% |  |
| COc1cc(-c2cc(C(=O)O)c3ccccc3n2)ccc1O | inactive: 12.1% |  |
| O=C(O)C1CN(C(=O)c2csc(-c3cccs3)n2)CCO1 (stereo unspecified) |  | inconclusive: 20 µM [inhibitor, partial curve, poor fit] |
| COc1cc(NC(=O)CSc2c3c(nc4ccccc24)CCC3)cc(OC)c1OC |  | inconclusive: 31.6 µM [inhibitor, single point] |
| O=C(CCC(=O)c1ccccc1)Nc1ccccc1-c1ccccc1 | inactive: 3.41% |  |
| Cc1cc(NC(=O)c2ccccc2Cl)sc1C(=O)NC(C)c1ccc(NC(=O)C2CC2)cc1 (stereo unspecified) |  | inconclusive: 25.1 µM [inhibitor, single point] |
| Cn1c(C(=O)NC2CCN(Cc3ccccc3)CC2)cc2c1CCN(Cc1ccccc1)C2 |  | active: 20 µM |
| Cc1ccc(-c2nn3c(C)nnc3c3ccccc23)cc1S(=O)(=O)NCC(C)O (stereo unspecified) |  | inconclusive: 22.4 µM [inhibitor, single point] |
| O=C(c1ccc(N2CC3CC(C2)[C@H]2CCCC(=O)N2C3)nc1)N1CCc2ccccc2C1 (stereo partly specified) |  | inconclusive: 20 µM [inhibitor, single point] |
| Brc1ccc(CN2CCCCCC2)cc1 |  | inconclusive: 8.91 µM [inhibitor, partial curve, poor fit] |
| N#Cc1cccnc1NCc1cccnc1 |  | inconclusive: 28.2 µM [inhibitor, partial curve, poor fit] |
| Cc1ccc(/C=C(/C#N)c2nc3ccccc3[nH]2)o1 |  | inconclusive: 39.8 µM [inhibitor, single point] |
| C[N+]1(CC#Cc2ccc(C#CC[N+]3(C)CCCC3)cc2)CCCC1 | inactive: 2.2% |  |
| Cc1noc(-c2ccn3c(CNC(=O)c4cccc(F)c4)nnc3c2)n1 |  | active: 28.2 µM |
| CCN1CCN(c2oc(-c3ccc(S(=O)(=O)N4CCOCC4)cc3)nc2C#N)CC1 |  | inconclusive: 2 µM [inhibitor, full curve, poor fit] |
| COCC1CN(C(=O)CN2CCCC2=O)CC12CCNCC2 (stereo unspecified) |  | inconclusive: 28.2 µM [inhibitor, partial curve, poor fit] |
| CCOC(=O)c1cc(NCc2cccc3ccccc23)ccc1N1CCOCC1 |  | inconclusive: 28.2 µM [inhibitor, partial curve, poor fit] |
| COc1cc(C(=O)Nc2ccccc2)cc2c1OCCO2 | inactive: -14.7% |  |
| COc1ccc2[nH]c3c(c2c1)CCNC31CCN(Cc2ccc(C)o2)CC1 |  | active: 20 µM |

| SMILES | activity change, negative = inhibition | Potency |
| --- | --- | --- |
| O=C(c1ccccc1)N1c2nc(-c3ccco3)nn2C2(CCCCC2)[C@@H]2CCCC[C@@H]21 |  | inconclusive: 2.24 µM [inhibitor, full curve, poor fit] |
| O=C(NC[C@H]1O[C@@H](CC(=O)N2CCN(c3ccc(F)cc3)CC2)[C@H](O)[C@@H]1O)c1ccccc1 | inactive: 12.5% |  |
| COC(=O)c1cccc(NC(=O)N2CCC3(CCC(=O)N(Cc4ccccc4)CC3)CC2)c1 | inactive: -8.76% |  |
| COc1ccc(-c2nc(C(=O)N3CCCCC3C)nn2-c2ccccc2Cl)cc1 (stereo unspecified) | inactive: 21.8% |  |
| CCCC(=O)Nc1ccc(-c2csc(NC3CC3)n2)cc1 | inactive: -18.5% |  |
| COc1ccc(C(=O)N2CCc3nc(C)nc(-c4ccc(O)cc4)c3C2)cc1 | inactive: 2.26% |  |
| O=C(O)C[C@@H]1CCN(C(=O)Nc2ccc(C(F)(F)F)cc2)C[C@@H]1CCN1C[C@@H]2C[C@H](C1)c1cccc(=O)n1C2 | inactive: -12.1% |  |
| Cc1cc(C)cc(NC(=O)C(Cc2ccccc2)NS(=O)(=O)c2ccc3c(c2)CCC(=O)N3)c1 (stereo unspecified) |  | inconclusive: 1.12 µM [inhibitor, partial curve, poor fit] |
| COc1ccc(C2(C(=O)N3CCC4(CC3)CC(C(=O)N3CCOCC3)N(C)C4)CC2)cc1 (stereo unspecified) |  | inconclusive: 31.6 µM [inhibitor, partial curve, poor fit] |
| Cc1noc(-c2ccn3c(CNC(=O)Cc4ccccc4Cl)nnc3c2)n1 |  | active: 25.1 µM |
| Cc1nc(CCC(=O)NCc2ccc3[nH]c(-c4ccccc4F)c(C)c3c2)n[nH]1 |  | active: 25.1 µM |
| O=C(NC1(C(F)(F)F)C(=O)Nc2c1c(=O)[nH]c(=O)n2-c1ccc(F)cc1)c1cccnc1 (stereo unspecified) |  | inconclusive: 28.2 µM [inhibitor, partial curve, poor fit] |
| Cc1cc(C(=O)NCc2c(C)ncc3c2CCNC3)ccc1F | inactive: 1.99% |  |
| Cc1ccc(S(=O)(=O)Oc2ccc3c(C)cc(=O)oc3c2)cc1C |  | inconclusive: 35.5 µM [inhibitor, partial curve, poor fit] |
| CC(C)Cn1c(-c2cccc(Br)c2)nc2ccccc21 |  | inconclusive: 35.5 µM [inhibitor, single point] |
| O=C([C@H]1C[C@H](Oc2ccccc2)CN1S(=O)(=O)Cc1ccccc1F)N1CCOCC1 | inactive: -10.4% |  |
| COc1ccc(-c2nn(-c3ccccc3)cc2CN2CCCC(C)(O)C2)c(F)c1 (stereo unspecified) | inactive: 5.64% |  |
| c1c[nH]c(-c2nc3ncccc3[nH]2)c1 |  | active: 141 µM |
| C=CCNC(=O)N[C@H]1CCN(C(=O)CC(C)(C)C)[C@@H]1C(=O)N(C)CC(N)=O | inactive: 7.99% [at 86.2 µM] |  |
| O=C(Cc1ccccc1Cl)NCc1nnc2ccc(-c3ccccc3)nn12 |  | active: 11.2 µM |
| O=C(Oc1c(-c2ccccc2)c(=O)n2c3c(cccc13)CC2)c1cccc([N+](=O)[O-])c1 |  | inconclusive: 39.8 µM [inhibitor, partial curve, poor fit] |
| COc1cc(Cl)c(C)cc1NC(=O)c1cnc(N2CCCCC2)c2ccccc12 |  | inconclusive: 1.78 µM [inhibitor, full curve, poor fit] |
| COc1cc(OC(F)(F)F)ccc1C(=O)NCc1nnc2n1C(C(=O)O)CC2 (stereo unspecified) |  | inconclusive: 56.2 µM [inhibitor, partial curve, poor fit] |
